In all, about 33,000 sequences were measured (“E-score (-0.5 to 0.5)”: median about -0.043, highest 2% from about 0.37 on). The list shows a part of the results.
molecular target: T1, Upc2 (UniProt Q12151); assay: PBM E-score (8-mer binding enrichment) (E-score (-0.5 to 0.5)); higher = stronger / more preferred TF binding; most listed sequences are background and not binding sites; conditions: protein concentration: 200 nM; construct: GST-full length
T1 sequence: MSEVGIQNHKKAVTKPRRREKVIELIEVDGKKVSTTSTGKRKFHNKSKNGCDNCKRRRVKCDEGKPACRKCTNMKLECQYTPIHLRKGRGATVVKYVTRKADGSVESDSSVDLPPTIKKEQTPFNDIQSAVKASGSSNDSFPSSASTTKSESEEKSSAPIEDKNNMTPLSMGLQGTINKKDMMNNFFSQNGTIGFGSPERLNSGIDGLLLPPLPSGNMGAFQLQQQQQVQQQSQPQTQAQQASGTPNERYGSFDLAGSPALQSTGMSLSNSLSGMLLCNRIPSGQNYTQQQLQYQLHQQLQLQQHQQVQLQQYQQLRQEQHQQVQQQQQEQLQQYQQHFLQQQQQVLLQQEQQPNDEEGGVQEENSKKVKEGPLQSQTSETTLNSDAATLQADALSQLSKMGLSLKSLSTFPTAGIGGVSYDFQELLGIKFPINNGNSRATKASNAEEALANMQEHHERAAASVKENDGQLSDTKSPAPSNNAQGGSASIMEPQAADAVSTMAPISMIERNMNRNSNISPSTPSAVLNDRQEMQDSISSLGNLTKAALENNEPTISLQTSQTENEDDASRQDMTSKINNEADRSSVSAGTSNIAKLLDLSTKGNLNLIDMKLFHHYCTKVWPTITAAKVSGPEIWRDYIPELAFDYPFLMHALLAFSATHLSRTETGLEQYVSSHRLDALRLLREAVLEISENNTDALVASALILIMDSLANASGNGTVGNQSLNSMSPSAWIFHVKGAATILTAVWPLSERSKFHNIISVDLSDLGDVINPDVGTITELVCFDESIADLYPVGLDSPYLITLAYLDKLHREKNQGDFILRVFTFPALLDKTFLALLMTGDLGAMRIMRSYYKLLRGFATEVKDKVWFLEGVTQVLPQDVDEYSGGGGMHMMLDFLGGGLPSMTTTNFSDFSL
Experimental: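 Universal 'all 10-mer' protein binding microarrays (Agilent AMADID 015681) probed with GST-tagged S. cerevisiae TFs (full-length or DBD) made by in vitro transcription/translation (PURExpress), about 100-200 nM. Bound TF was detected with fluorescent anti-GST. Each ungapped 8-mer (which stands for itself and its reverse complement) is scored by the PBM enrichment score (E-score), a modified Wilcoxon-Mann-Whitney statistic from -0.5 to +0.5, computed with the Universal PBM Analysis Suite. Scale: above 0.35 generally sequence-specific binding.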

Sequence | PBM E-score
GTAATCTA | 0.0648
ACGCGCTC | 0.189
ATCTACAA | -0.0666
ACATGCGC | -0.0616
AAGGGGAC | -0.102
TGCTATAA | -0.235
AATAAATT | 0.112
AGCTTCAC | -0.0326
CTTATTCC | -0.321
CGGCGACC | -0.13
TACCTGGA | 0.0724
AAAAGATC | 0.0413
TGAAGTAA | -0.103
ACTTAACC | -0.0376
GAGCTCCC | 0.0615
ATCAGGAG | -0.0081
AGCGCCAC | -0.0209
GTAGATCA | -0.0484
GAGATAAC | -0.0825
GTAAGTAA | 0.038
CGAGTAGC | 0.147
ATACAGAC | 0.199
ATAGAGAC | -0.0831
GTAGGCTA | 0.0529
ATACAACA | 0.0455

Sequence | PBM E-score
ACAAACGG | 0.328
AGAGCTCC | -0.157
ACTCACTA | -0.0131
ATCGGCAG | -0.21
GACAACGA | 0.193
ATCAATAC | 0.15
GAGATGCC | 0.00372
CCCTTATC | -0.205
TAGGTCGA | 0.00219
CTGTGAAC | 0.0799
CTTTAGCC | -0.0131
GGCCCCTA | -0.217
CATCGTGA | 0.0225
ATAGTGGA | -0.11
CGTTCGTC | 0.293
ACGGCTAC | 0.257
CCGGACCC | 0.0459
CAGTTAAG | -0.0502
AAGGACGC | -0.174
ATGAAAAA | -0.0342
AGTTTCAG | -0.0861
ACCGGTCT | -0.347
AAGTGGGT | -0.0744
AAGCGCGT | 0.183
AAGAGTAG | -0.128

Sequence | PBM E-score
ACATTCGC | -0.0105
ACCAACGT | 0.0806
CGTGAAGC | -0.142
TGAGGAAA | -0.136
AATGGCCG | -0.154
ATATCGTG | 0.0382
AAGGAACA | -0.083
GAAGTGCC | -0.085
CGCACATC | 0.0941
CTCTCGTC | 0.0223
TATGCATA | -0.167
CTCAGAGA | -0.141
TGGTTAAA | 0.127
ACTTTCCA | -0.124
CATTTAGA | -0.0343
GGGATTAC | -0.0652
GTCATCCA | -0.265
ATTCGGCC | -0.198
ATAATTAT | 0.245
CCTCTACC | -0.273
ACCTTTCT | 0.0204
ATAAATGC | -0.113
CTTGTGCC | -0.19
GTGAATAA | -0.0516
ATGCTTTG | -0.132

Sequence | PBM E-score
AGGACCCT | -0.191
CGTAAAAA | 0.404
AGACACAA | -0.178
CTCACGGA | -0.0687
ATTGGGAC | -0.218
ACACTGCC | -0.0405
ACAGAGGG | -0.233
ATTGTATC | -0.2
ATCAACCG | -0.0127
CCCCAGGC | -0.391
GATACCAC | -0.0967
ACGAGCTC | 0.404
TGTCTGAA | -0.0557
ACGCGAGT | 0.195
CATAGCAG | -0.264
GGTCGACA | -0.00508
AGATATAG | 0.0375
AGGTCTAG | 0.0781
AAGCAAAC | 0.206
AAGCTTCT | 0.0126
AGTTTTCA | -0.0402
AGGATGGG | 0.00396
ATAGTGTA | -0.0666
GGGATACC | -0.152
CACAAGAA | -0.119

Sequence | PBM E-score
AACTCAGC | -0.133
CGTAGGGA | -0.0318
CAATGAAA | -0.12
AGTAACCG | 0.124
CGTTGGAA | -0.0293
AACATTGC | -0.0421
CCTCCCCA | -0.137
AGCAAGGG | -0.167
GAGCCGGA | -0.147
AAAGAACG | 0.207
CTTTGTAA | 0.029
AACGTACC | 0.256
ACCATTCC | -0.107
ACGGACAG | 0.103
AGAGTATC | 0.173
GGCTTACA | -0.162
TACGTATA | 0.423
AAGGGACA | -0.223
GGATGGCA | 0.0444
GGGGCGAA | -0.258
AACACAAC | 0.109
AAAGCAAT | -0.0118
TGTCCTAA | 0.0981
AAATACCA | -0.0252
GAAGCTAC | 0.0814

Sequence | PBM E-score
CCCACACG | 0.0149
AGGTTTTG | -0.0329
CACCCCCG | -0.186
ACCGGTGA | -0.0143
GCCCTCCA | -0.226
ATCTACCC | -0.0258
CCATTACG | 0.0641
ACAACTCT | -0.0655
ACAACTGA | -0.00564
ACTGTGCG | 0.134
ATTGTGTG | -0.262
ACCTCCGA | -0.0603
ATCCAACA | -0.0987
CCTGTATC | -0.0552
GCCGAGTA | -0.00493
ATGTTGCG | 0.0786
CATACTAG | -0.0879
AGATCAAC | 0.0219
AGGTACCA | -0.0227
ATCTAAGC | 0.0247
ACGAGGCC | 0.381
AACGGGGG | 0.148
ATGGTGTG | -0.0803
GCTTTCAC | -0.107
ACTTCCAC | -0.208

Sequence | PBM E-score
AAGGGAAA | -0.185
CCGAAGCG | 0.0707
GGTGCAAA | -0.14
ATACCAGA | -0.0271
ACCAGACG | -0.0469
GGGCCGGA | -0.172
ACGTACGA | 0.431
ATGGCGAG | -0.0492
CAGCCGTA | 0.299
AGTATGGA | -0.128
CACGATGA | 0.169
AGCCCGTG | -0.0733
AATCAGGC | -0.152
GTTAAAGA | 0.171
ACCCTCCT | -0.0647
GATTGAGC | 0.0285
CAGTAGCA | 0.0028
CTAGCTGA | -0.0756
AGTTATCC | -0.015
TGCGGGAA | -0.00487
GCTCAACC | -0.0491
GAAATTGA | -0.0434
